Test results taken from the supplement of paper PMC11417369.
This is one part of the list.

tested on: PfHDP1 homeodomain (GST-tagged); assay: gcPBM binding intensity (ln(normalized median fluorescence intensity)); higher = stronger DNA binding
Outline: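 An Agilent 4 × 180k array of primer-extended double-stranded 36-bp intergenic genomic probes, with negative controls, was incubated for 1 h with GST-tagged P. falciparum DNA-binding domains expressed in E. coli. Alexa488 anti-GST antibody detected bound protein, scanned at 488 nm. Binding intensity is the highest Masliner-normalised natural-log median intensity across replicate spots of either probe orientation.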

Sequence	gcPBM binding intensity (ln)
ATATAATTTTTCAAGTGTACTTTTTTTTTTTAACAT [XGTACX_site3050]	6.42
ATTTATATATATATAGGTACACATATTTATATATAA [XGTACX_site8487]	6.23
AATATAAATAAAAACACACACACACGGATATTTATA [CACACA_site7134]	7.15
CACACAACTATCAAGGTGCTAAAATGAAATAATATA [GTGCAC_site9871]	6.65
TTGTATCATATATTATGTACATATTTATTTATTATC [XGTACX_site7723]	6.34
CCCATGTAATATTAAACACACACTCATATAACACAA [CACACA_site7906]	6.78
ATATTTAAATATATTTATATATATAAAAAAAAATAT [GTGCAC_negctrl_site312]	6.71
CAAAATATTTAAAAAAGTACTTAAAATAAATTCAAA [XGTACX_site6866]	5.97
ACATATAAACTGTATACACACAAATATTGCATATAT [CACACA_site6804]	8.1
ATATATCTATATGTGTGTACATATAAGTATTTATAT [XGTACX_site5333]	6.64
ATATATATAAATATATGTACTAATATATACATATAT [XGTACX_site2289]	6.51
TACATTCTAAATATTACACACTTTATAAAATAATAA [CACACA_site4069]	6.5
AGAAAAGAGAAATGGGCACACACACCCATATTATAT [CACACA_site8433]	6.31
AAGGTGGGAAAAAATAGTACACAACAAAAATGTATG [XGTACX_site8741]	6.64
CACAAAAAGAAACACACACACATATATATTTATTAT [CACACA_site3646]	6.73
TATATATATATTTATACACACATTAGTGTATACATG [CACACA_site2950]	8.57
AAATAAATGTTATGCATACACACTTTATACCTATTT [CACACA_site3779]	7
TCTTTTATGTTTGTTTTTCCCTTTTTTTATGTTCCC [CACACA_negctrl_site1722]	6.6
ATATATATTAGGTATTGTACTTATATGCATATAAGT [XGTACX_site2700]	6.74
AATGAATGAATTATTTTGCGCTTATTATAGGACGAA [XGTACX_negctrl_site218]	6.77
AAAAACTATTGTAGGACACACAAAATTCCAATTTTA [CACACA_site1701]	6.26
ATATATATAAAACACACACACACATGTTTTAAAACT [CACACA_site78]	7.01
AAGTAATTTATGCATACACACATATATAAATATGTA [CACACA_site7813]	6.91

Sequence	gcPBM binding intensity (ln)
TATATATATATATACACACACACCGTCCGTGTTAAA [CACACA_site2979]	9.32
ATATATTAAAACCTAGTGCATTTGTACATATTTCAA	8.12
TTATACAGGACAATAGTGCACATAAATATATGTATA	10
GCAGTCAAAAAGGAAAATATAAAAAAAGTATATGTG [GTGCAC_negctrl_site95]	6.18
AGGTTAAAACATATATATATATATATATATATATAT [XGTACX_negctrl_site333]	9.27
TTTTTTTATTATTAAAGTACTAAAAAATGAAAACTG [XGTACX_site6758]	6.33
TGGGAATAAAAACACACACACACACCGATATATATA [CACACA_site5875]	6.93
TATAATAAAAAATGTACACACATAAGAAAATTTAAT [CACACA_site2901]	6.73
ACATAATAAAAAAAACGTACAAATAGGTTTTTCATA [XGTACX_site6645]	6.1
GACTATTTTAATATTTTACACACCATGTAAAATATA [CACACA_site9050]	6.75
ATTTTTTAAAATATTTGTACATATATAATGCATATA [XGTACX_site7026]	6.95
CACAGACACGGACACACACACACACCGATATATATA [CACACA_site4353]	6.99
TAAATACTTATATGTACACACATATAGATATATATT [CACACA_site2553]	6.34
ATATAAATAAATGTATGTACATATATTTATATGCAT [XGTACX_site4185]	6.37
ATCTGTACAGTTTTTGCACACATATAAATAAAAAAA [CACACA_site9198]	10.7
TATTTACAAATAAAAAGTACATAAACTAATATCTTT [XGTACX_site2181]	5.89
TATATTAGAAAGGATACACACATATATAAATATCTA [CACACA_site6411]	6.15
TTGTTTGTAAACAGATGTACATATAAAAATATATAT [XGTACX_site3370]	6.48
ATATATATATATATATGTACATATATTTGTAATGTC [XGTACX_site8074]	9.2
TTTATTATGTAAGCATGTACATGATGTATATATTTA [XGTACX_site5021]	6.68
TCAGATCCATAGAAGGTGCAAATAACAAAAATACAA [GTGCAC_site9610]	9.59
TAATTTTTCTTATATAGTACACAAAAAGAAAATTAC [XGTACX_site6393]	6.57
